# The entries are a selection whose mix differs from that of the whole data set. The list includes weakly bound sequences.
# Tests used:
# Experiment in all cases: protein-binding microarray (PBM)
# Conditions in all cases: PBM: ~300 nM protein, 6 mM HEPES pH 7.8, 80 mM KCl, 0.5 mM EDTA, 0.5 mM EGTA, 6% glycerol, 35 ng/ul poly-dIdC, 1% milk, 1 h, room temperature; Ap Aiptasia and Nv Nematostella (sea anemones) / Co Capsaspora / Aq Amphimedon (sponge) / Dm Drosophila / Hu human; RHD is the Rel homology domain; high values mean tight binding; most listed sequences are background and not binding sites; double strand, one strand shown
# [1] = biological target: T1, GST-Ap-NF-kB RHD (UniProt A0A913YAJ5)
# T1 sequence: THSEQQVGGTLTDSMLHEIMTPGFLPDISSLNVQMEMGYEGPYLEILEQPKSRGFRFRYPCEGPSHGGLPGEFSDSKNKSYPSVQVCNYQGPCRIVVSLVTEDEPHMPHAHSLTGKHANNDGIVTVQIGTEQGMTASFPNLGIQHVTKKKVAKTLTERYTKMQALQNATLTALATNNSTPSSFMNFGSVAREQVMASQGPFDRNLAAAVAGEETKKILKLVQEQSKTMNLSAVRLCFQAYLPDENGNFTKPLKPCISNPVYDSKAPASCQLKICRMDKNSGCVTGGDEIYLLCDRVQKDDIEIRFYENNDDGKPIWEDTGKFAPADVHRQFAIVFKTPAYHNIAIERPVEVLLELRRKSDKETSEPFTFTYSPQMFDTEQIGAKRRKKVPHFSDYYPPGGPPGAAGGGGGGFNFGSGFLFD
# [2] = biological target: T2, GST-Nv-NF-kB (Cys allele) (UniProt E5G601)
# T2 sequence: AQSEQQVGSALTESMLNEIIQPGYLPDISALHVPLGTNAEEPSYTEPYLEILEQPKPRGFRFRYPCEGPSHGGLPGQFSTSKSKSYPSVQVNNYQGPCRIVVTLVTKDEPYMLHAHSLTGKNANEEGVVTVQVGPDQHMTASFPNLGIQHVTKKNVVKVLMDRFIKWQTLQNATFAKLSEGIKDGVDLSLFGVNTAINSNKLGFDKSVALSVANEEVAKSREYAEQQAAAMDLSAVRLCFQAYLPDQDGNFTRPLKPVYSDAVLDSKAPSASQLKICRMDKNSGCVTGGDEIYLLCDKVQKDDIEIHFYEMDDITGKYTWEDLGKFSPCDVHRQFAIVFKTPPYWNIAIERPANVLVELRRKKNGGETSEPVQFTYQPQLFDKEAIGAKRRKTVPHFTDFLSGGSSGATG
# [3] = biological target: T3, GST-Dm-Relish (UniProt Q94527)
# T3 sequence: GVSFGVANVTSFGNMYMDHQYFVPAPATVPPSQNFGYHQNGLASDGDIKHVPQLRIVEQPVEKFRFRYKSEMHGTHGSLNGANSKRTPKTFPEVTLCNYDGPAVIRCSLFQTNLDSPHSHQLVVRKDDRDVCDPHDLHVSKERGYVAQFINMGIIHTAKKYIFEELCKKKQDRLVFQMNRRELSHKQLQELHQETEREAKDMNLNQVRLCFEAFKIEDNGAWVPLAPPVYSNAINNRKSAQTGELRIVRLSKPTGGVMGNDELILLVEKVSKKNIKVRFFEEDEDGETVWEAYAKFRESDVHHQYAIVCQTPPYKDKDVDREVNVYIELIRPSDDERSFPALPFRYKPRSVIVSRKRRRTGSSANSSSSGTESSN
# [4] = biological target: T4, GST-Aq-NF-kB (UniProt A9Y5G7)
# T4 sequence: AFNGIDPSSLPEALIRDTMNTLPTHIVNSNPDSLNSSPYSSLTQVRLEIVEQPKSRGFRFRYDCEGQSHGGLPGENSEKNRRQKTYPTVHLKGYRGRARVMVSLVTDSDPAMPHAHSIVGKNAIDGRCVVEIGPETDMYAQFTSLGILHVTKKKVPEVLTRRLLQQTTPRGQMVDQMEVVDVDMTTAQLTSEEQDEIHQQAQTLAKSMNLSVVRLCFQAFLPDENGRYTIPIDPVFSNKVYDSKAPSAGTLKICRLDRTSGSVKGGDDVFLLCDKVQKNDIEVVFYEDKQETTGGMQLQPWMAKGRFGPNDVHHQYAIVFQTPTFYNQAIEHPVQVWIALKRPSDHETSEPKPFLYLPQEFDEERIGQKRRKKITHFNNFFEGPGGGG
Sequence,binding signal [1] [z-score],binding signal [2] [z-score],binding signal [3] [z-score],binding signal [4] [z-score]
CCGATTAACATCAATTTTTGCCCTGATGTTAATCGGGTCTTGATTCGCTTGACGCTGCTG,0.78,-0.109,0.204,0.0842
CCGATTAACATCATGTCGGGTGATGATGTTAATCGGGTCTTGATTCGCTTGACGCTGCTG,0.288,-0.00993,-0.331,0.171
CCGATTAACATCAAAAAGTCCCCTGATGTTAATCGGGTCTTGATTCGCTTGACGCTGCTG,9.45,10.8,10,8.93
CCGATTAACATCAGGTCACCCCATGATGTTAATCGGGTCTTGATTCGCTTGACGCTGCTG,0.838,0.399,0.832,0.454
CCGATTAACATCACAATAACGGGTGATGTTAATCGGGTCTTGATTCGCTTGACGCTGCTG,-0.151,0.441,1.63,0.391
CCGATTAACATCAGGGGATCCCCTGATGTTAATCGGGTCTTGATTCGCTTGACGCTGCTG,14.6,11.6,10.8,11.3
CCGATTAACATCAGGGAACCCCCTGATGTTAATCGGGTCTTGATTCGCTTGACGCTGCTG,13,11.8,11,11.1
CCGATTAACATCAGGGAAGTCCCTGATGTTAATCGGGTCTTGATTCGCTTGACGCTGCTG,9.31,11.7,10.4,10.2
CCGATTAACATCAGGGAAGCCCCTGATGTTAATCGGGTCTTGATTCGCTTGACGCTGCTG,9.42,10.8,10.3,9.75
CCGATTAACATCAGGAAATCCCCTGATGTTAATCGGGTCTTGATTCGCTTGACGCTGCTG,10.8,12.1,10.3,10.9
CCGATTAACATCATGGGGTGTGCTGATGTTAATCGGGTCTTGATTCGCTTGACGCTGCTG,1.12,0.544,0.773,0.859
CCGATTAACATCAATGTCGGTGGTGATGTTAATCGGGTCTTGATTCGCTTGACGCTGCTG,0.896,0.352,0.243,0.95
CCGATTAACATCAGCCATATTTGTGATGTTAATCGGGTCTTGATTCGCTTGACGCTGCTG,-0.0115,-0.207,0.452,-0.369
CCGATTAACATCAGGGAATCCCCTGATGTTAATCGGGTCTTGATTCGCTTGACGCTGCTG,14.7,13.7,11,12.1

# — paper PMC5700166
